From the supplement of paper PMC11876631
± gives the standard deviation of the averaged measurements. Laboratory Escherichia coli strains with one amino-acid change in an essential protein, pooled on minimal glucose agar with carbenicillin or gentamicin at twice the control MIC (plus kanamycin and chloramphenicol for the plasmids), 48 h. Fold change of barcode share against drug-free plates; higher = less susceptible. Active = above 20 in both replicates (the paper's putatively resistant). '<' = one read or none on drug, '>' = one read or none on a drug-free plate. Shares are relative, so most strains fall below 1 when a few take over. Listed are strains with at least 15 reads on both drug-free plates, and hits; most hits rest on fewer reference reads. Replicate rank correlation about 0.5. Edits are read from barcodes.

B1: bioB; numbered along this chain (parent)
chain: MAHRPRWTLSQVTELFEKPLLDLLFEAQQVHRQHFDPRQVQVSTLLSIKTGACPEDCKYCPQSSRYKTGLEAERLMEVEQVLESARKAKAAGSTRFCMGAAWKNPHERDMPYLEQMVQGVKAMGLEACMTLGTLSESQAQRLANAGLDYYNHNLDTSPEFYGNIITTRTYQERLDTLEKVRDAGIKVCSGGIVGLGETVKDRAGLLLQLANLPTPPESVPINMLVKVKGTPLADNDDVDAFDFIRTIAVARIMMPTSYVRLSAGREQMNEQTQAMCFMAGANSIFYGCKLLTTPNPEEDKDLQLFRKLGLNPQQTAVLAGDNEQQQRLEQALMTPDTDEYYNAAAL
B2: cysH; a variant is named by its letters at X, in order (parent)
chain: MSKLDLNALNELPKVDRILALAETNAELEKLDAEGRVAWALDNLPGEYVLSSSFGIQAAVSXHLXNQIRPDIPVILTDTGYLFPETYRFIDELTDKLKLNLKVYRATESAAWQEARYGKLWEQGVEGIEKYNDINKVEPMNRALKELNAQTWFAGLRREQSGSRANLPVLAIQRGVFKVLPIIDWDNRTIYQYLQKHGLKYHPLWDEGYLSVGDTHTTRKWEPGMAEEETRFFGLKRECGLHEG

Variants of: B1
Experiment: barcode share on antibiotic plates over drug-free plates; higher = less susceptible
Conditions: with Escherichia coli (laboratory strain); antibiotic: carbenicillin; 2× MIC (3.1 µg/mL)
Protocol: (§1)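 A pool of E. coli strains, each edited to carry one amino-acid change in an essential protein, was grown for 48 h on minimal glucose agar with or without antibiotic; strain barcodes were sequenced; mean of two replicates.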

Row | Variant | fold change of barcode share
1 | M98Q | 1.05 ± 0.11
2 | M98W | 1.2 ± 0.1
3 | M98A | 0.497 ± 0.073
4 | M98D | 1.44 ± 0.29
5 | M278A | 0.423 ± 0.012
6 | M278D | 1.3 ± 0.18
7 | M278P | 1.23 ± 0.13

Same assay, conditions: with Escherichia coli (laboratory strain); antibiotic: gentamicin; 2× MIC (MIC 0.45 µg/mL)

Row | Variant | fold change of barcode share
8 | M98Q | 0.0118 ± 0.0041
9 | M98W | 0.0359 ± 0.017
10 | M98A | 0.0159 ± 0.0016
11 | M98D | 0.0282 ± 0.0073
12 | M278A | 0.00563 ± 0.0051
13 | M278D | 0.0189 ± 0.0086
14 | M278P | 0.0265 ± 0.00066

Variants of: B2
Experiment: as above
Conditions: with Escherichia coli (laboratory strain); antibiotic: carbenicillin; 2× MIC (3.1 µg/mL)
Protocol: as §1

Row | Variant | fold change of barcode share
15 | LV V169A | 0.453 ± 0.068
16 | LV V169W | 0.527 ± 0.077
17 | LV V169P | 0.513 ± 0.12
18 | DV | 1.28 ± 1.1
19 | LP | 0.628 ± 0.053
20 | LA | 0.355 ± 0.17
21 | LQ | 1.6 ± 0.8
22 | LW | 0.709 ± 0.24
23 | LD | 0.477 ± 0.071
24 | LV L93A | 0.446 ± 0.067
25 | LV L93W | 0.356 ± 0.032
26 | LV L93Q | 0.359 ± 0.017
27 | LV I75A | 0.382 ± 0.038
28 | LV I75W | 1.24 ± 0.44
29 | WV | 0.467 ± 0.011
30 | QV | 0.429 ± 0.026
31 | AV | 0.406 ± 0.047
32 | LV L170Q | 0.488 ± 0.14
33 | LV L170A | 0.419 ± 0.088
34 | LV L170P | 0.476 ± 0.011
35 | PV | 0.891 ± 0.29
36 | LV V74A | 0.462 ± 0.092

Same assay, conditions: with Escherichia coli (laboratory strain); antibiotic: gentamicin; 2× MIC (MIC 0.45 µg/mL)

Row | Variant | fold change of barcode share
37 | LV V169A | 0.00944 ± 0.0092
38 | LV V169W | 0.016 ± 0.011
39 | LV V169P | 0.00887 ± 0.0096
40 | DV | 0.00484 ± 0.0027
41 | LP | 0.0274 ± 0.0011
42 | LA | 0.0048 ± 0.00084
43 | LQ | 0.0259 ± 0.005
44 | LW | 0.0278 ± 0.012
45 | LD | 0.01547 ± 3.7e-05
46 | LV L93A | 0.00633 ± 0.0047
47 | LV L93W | < 0.00674
48 | LV L93Q | 0.0102 ± 0.0085
49 | LV I75A | 0.0182 ± 0.0078
50 | WV | 0.00764 ± 0.0069
51 | QV | 0.00514 ± 0.0019
52 | AV | 0.0186 ± 0.0096
53 | LV L170Q | 0.00946 ± 0.0059
54 | LV L170A | 0.00604 ± 0.0055
55 | LV L170P | < 0.00759
56 | PV | 0.0224 ± 0.028
57 | LV V74A | < 0.0123
